Measurements from ChEMBL document CHEMBL5606458, “ASAP - ZIKV NS2B-NS3 protease fluorescence single point” (2024).
Hit rate of the full screen: of about 2,700 compounds, about 160 (5.9%) showed an effect of 50% or more. Some of the results follow. Where a SMILES comes first, the peptide text is derived from it. [ ]: non-standard residue; d: D form. Phg = N[C@H](C(=O)O)c1ccccc1; 4Amb = NCc1ccc(C(=O)O)cc1; Nle = CCCC[C@H](N)C(=O)O

Molecular target: Nonstructural protein 3 (Zika virus) (UniProt A0A024AXB9)
[1] = PRVABC59, Concentration 50.0 uM, Number of replicates 1.0
[2] = PRVABC59, Concentration 15.0 uM, Number of replicates 1.0
[3] = PRVABC59, Concentration 10.0 uM, Number of replicates 1.0

Chain of UniProt A0A024AXB9 (A0A024AXB9 as listed by the source): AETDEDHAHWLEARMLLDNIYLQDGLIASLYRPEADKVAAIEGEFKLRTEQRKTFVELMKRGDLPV

C[C@H](NC(=O)C1CCN(c2ccc(C=O)cc2)CC1)C12CC3CC(CC(C3)C1)C2
inhibition [1]: 15.4%

O=C(CNC(=O)c1cc(Cl)ccc1NS(=O)(=O)c1ccc(Oc2ccccc2Cl)cc1)c1ccccc1F
inhibition [2]: 40.7%

CC(C)(NC(=O)c1cc(Cl)ccc1NS(=O)(=O)c1ccc(Oc2ccccc2Cl)cc1)c1ccc(Cl)cc1
inhibition [2]: 44.3%

CN(C)Cc1ccc(NCc2ccc(N3CCN(C)CC3)cc2)nc1
inhibition (PRVABC59, Concentration 49.5 uM, Number of replicates 2.0, Standard deviation 0.4640657991367188 %): -2.39%
inhibition (PRVABC59, Concentration 99.01 uM, Number of replicates 2.0, Standard deviation 0.7284754441158133 %): -1.05%
inhibition (PRVABC59, Concentration 198.0 uM, Number of replicates 2.0, Standard deviation 0.8166119221974307 %): 1.21%

NS(=O)(=O)c1ccc(CN2CC[C@H](c3c[nH]c4ccccc34)C2)cc1
inhibition (PRVABC59, Concentration 49.5 uM, Number of replicates 2.0, Standard deviation 7.161002948854144 %): 6.37%
inhibition (PRVABC59, Concentration 99.01 uM, Number of replicates 2.0, Standard deviation 1.659205437746796 %): 6.39%
inhibition (PRVABC59, Concentration 198.0 uM, Number of replicates 2.0, Standard deviation 2.217206109795867 %): 16.1%

O=C(c1nc2ccccc2[nH]1)N1CCC[C@H](c2cc3ccccc3[nH]2)C1
inhibition (PRVABC59, Concentration 49.5 uM, Number of replicates 2.0, Standard deviation 1.1321789904305632 %): 7.59%
inhibition (PRVABC59, Concentration 99.01 uM, Number of replicates 2.0, Standard deviation 0.9508227871621268 %): 7.42%
inhibition (PRVABC59, Concentration 198.0 uM, Number of replicates 2.0, Standard deviation 1.4793462905374664 %): 9.14%

Cc1cc(CO)c2cccc(Cc3ccccc3NC(=O)[C@H](N)CCO)c2n1
inhibition (PRVABC59, Concentration 49.95 uM, Number of replicates 2.0, Standard deviation 2.3056170481549874 %): -1.76%
inhibition (PRVABC59, Concentration 99.9 uM, Number of replicates 2.0, Standard deviation 1.6032436530841527 %): 1.71%

CCCC[C@H](NC(C)=O)C(=O)N[C@H](C(=O)NCc1ccc(C(N)=O)cc1)c1ccccc1 (Ac-[Nle]-[Phg]-[4Amb]-NH2)
inhibition (PRVABC59, Concentration 49.5 uM, Number of replicates 2.0, Standard deviation 0.08688180854829654 %): 0.43%
inhibition (PRVABC59, Concentration 99.01 uM, Number of replicates 2.0, Standard deviation 0.6344392080327925 %): 2.21%
inhibition (PRVABC59, Concentration 198.0 uM, Number of replicates 2.0, Standard deviation 1.1213816421916485 %): 3.42%

CN(Cc1nc(-c2cccnc2)no1)C(=O)C1CCN(c2ccc(C=O)cc2)CC1
inhibition [1]: 23.8%

Cc1nc(CNC(=O)c2cc(Cl)ccc2NS(=O)(=O)c2ccc(Oc3ccccc3Cl)cc2)nc2c1CCCC2
inhibition [2]: 37%

O=Cc1ccc(N2CCC(C(=O)NC[C@H]3COc4ccccc4O3)CC2)cc1
inhibition [1]: 27.6%

O=C(c1cc(Cl)ccc1NS(=O)(=O)c1ccc(Oc2ccccc2Cl)cc1)N1CCN(CC2CCCCC2)CC1
inhibition [2]: 23.1%

O=Cc1ccc(N2CCC(C(=O)NCc3ccc4ccccc4n3)CC2)cc1
inhibition [3]: 0.156%

COc1ccc(-c2ccccc2C(=O)Nc2cnn(C)c2)cn1
inhibition (PRVABC59, Concentration 49.5 uM, Number of replicates 2.0, Standard deviation 1.8092283251330816 %): -6.26%
inhibition (PRVABC59, Concentration 99.01 uM, Number of replicates 2.0, Standard deviation 2.476091272312699 %): -6.53%
inhibition (PRVABC59, Concentration 198.0 uM, Number of replicates 2.0, Standard deviation 0.8234310715522508 %): -5.53%

O=C(CCNC(=O)c1cc(Cl)ccc1NS(=O)(=O)c1ccc(Oc2ccccc2Cl)cc1)NC1CCCCC1
inhibition [2]: 30.5%

C=CCN(Cc1ccc(F)cc1)C(=O)c1cc(Cl)ccc1NS(=O)(=O)c1ccc(Oc2ccccc2Cl)cc1
inhibition [2]: 36.5%

CC(C)Cn1cccc(C(=O)NC2CCNCC2)c1=O
inhibition (PRVABC59, Concentration 49.5 uM, Number of replicates 2.0, Standard deviation 4.594544281474448 %): -7.66%
inhibition (PRVABC59, Concentration 99.01 uM, Number of replicates 2.0, Standard deviation 4.775385618841476 %): -9.55%

O=C(NCc1nnc(-c2ccccc2)o1)c1cc(Cl)ccc1NS(=O)(=O)c1ccc(Oc2ccccc2Cl)cc1
inhibition [2]: 54.2%

O=Cc1ccc(N2CCC(C(=O)Nc3ccccc3Cc3ccccc3)CC2)cc1
inhibition [1]: 26.1%

CC(C)C[C@@H](NC(=O)OCc1ccccc1)C(=O)Nc1cccc(CN)c1
inhibition (PRVABC59, Concentration 49.5 uM, Number of replicates 2.0, Standard deviation 4.877475611912747 %): 4.28%
inhibition (PRVABC59, Concentration 99.01 uM, Number of replicates 2.0, Standard deviation 0.6723794638875112 %): 6.03%
inhibition (PRVABC59, Concentration 198.0 uM, Number of replicates 2.0, Standard deviation 0.5215480313593926 %): 12.7%

O=C(c1cc(Cl)ccc1NS(=O)(=O)c1ccc(Oc2ccccc2Cl)cc1)N1CCC(Oc2ncccn2)CC1
inhibition [2]: 6.88%

C[C@H](NC(=O)C1CCN(c2ccc(C=O)cc2)CC1)c1ccc(N2CCOCC2)cc1
inhibition [1]: 26.2%

O=C(N[C@@H](CO)Cc1ccccc1)c1cc(Cl)ccc1NS(=O)(=O)c1ccc(Oc2ccccc2Cl)cc1
inhibition [2]: 33.2%

CN(Cc1nccn1Cc1ccccc1)C(=O)C1CCN(c2ccc(C=O)cc2)CC1
inhibition [1]: 21.1%

CN(Cc1nccn1Cc1ccccc1)C(=O)c1cc(Cl)ccc1NS(=O)(=O)c1ccc(Oc2ccccc2Cl)cc1
inhibition [2]: 5.33%

O=Cc1ccc(N2CCC(C(=O)N3CCNC(=O)[C@@H]3c3ccccc3)CC2)cc1
inhibition [1]: 16.7%

O=C(NCCCn1nccc1C1CC1)c1cc(Cl)ccc1NS(=O)(=O)c1ccc(Oc2ccccc2Cl)cc1
inhibition [2]: 25.6%

C[C@@H](CC(C)(C)c1ccccc1)NC(=O)c1cc(Cl)ccc1NS(=O)(=O)c1ccc(Oc2ccccc2Cl)cc1
inhibition [2]: 18.2%

O=Cc1ccc(N2CCC(C(=O)Nc3ccc(F)c(F)c3Br)CC2)cc1
inhibition [1]: 23.2%

N#Cc1ccc(N2CCN(C(=O)c3cc(Cl)ccc3NS(=O)(=O)c3ccc(Oc4ccccc4Cl)cc3)CC2)nc1
inhibition [2]: 7.42%

O=C(c1cc(Cl)ccc1NS(=O)(=O)c1ccc(Oc2ccccc2Cl)cc1)N1CCN(C(=O)[C@H]2COc3ccccc3O2)CC1
inhibition [2]: 19.2%

O=Cc1ccc(N2CCC(C(=O)N3CCC[C@H](C(=O)c4ccc(F)cc4)C3)CC2)cc1
inhibition [1]: 23.6%

CSc1ccc(CNC(=O)c2cc(Cl)ccc2NS(=O)(=O)c2ccc(Oc3ccccc3Cl)cc2)cc1
inhibition [2]: 25.6%

Cc1cc(CO)c2cccc(Cc3cccc(C(=O)N[C@@H](CCC(N)=O)C(=O)O)c3)c2n1
inhibition (PRVABC59, Concentration 49.95 uM, Number of replicates 2.0, Standard deviation 1.9977585963676485 %): 14.4%
inhibition (PRVABC59, Concentration 99.9 uM, Number of replicates 2.0, Standard deviation 0.9280938346971718 %): 36%

O=C1NC(=O)C2(CCN(C(=O)c3cc(Cl)ccc3NS(=O)(=O)c3ccc(Oc4ccccc4Cl)cc3)CC2)N1
inhibition [2]: -1.11%

O=C(Nc1ncccc1C(F)(F)F)c1cc(Cl)ccc1NS(=O)(=O)c1ccc(Oc2ccccc2Cl)cc1
inhibition [2]: 25.1%

Cc1c(C(=O)NCc2nnc([C@H]3CCCO3)[nH]2)ccc(O)c1NC(=O)c1ccncc1F
inhibition (PRVABC59, Concentration 49.5 uM, Number of replicates 2.0, Standard deviation 2.746247007883526 %): -0.923%
inhibition (PRVABC59, Concentration 99.01 uM, Number of replicates 2.0, Standard deviation 2.0182325238498766 %): 0.321%
inhibition (PRVABC59, Concentration 198.0 uM, Number of replicates 2.0, Standard deviation 2.8783776729931185 %): 1.74%

CCN(Cc1cnn(CC)c1)C(=O)C1CCN(c2ccc(C=O)cc2)CC1
inhibition [3]: 20.1%

CNC(=O)CC[C@H]1CCCN(C(=O)c2cc(Cl)ccc2NS(=O)(=O)c2ccc(Oc3ccccc3Cl)cc2)C1
inhibition [2]: 0.891%

CCOC(=O)c1cc(CNCc2nnc3ccccn23)[nH]n1
inhibition (PRVABC59, Concentration 49.5 uM, Number of replicates 2.0, Standard deviation 0.8643145261321823 %): 3.76%
inhibition (PRVABC59, Concentration 99.01 uM, Number of replicates 2.0, Standard deviation 0.8811301071636647 %): 6.15%
inhibition (PRVABC59, Concentration 198.0 uM, Number of replicates 2.0, Standard deviation 1.1115020837259069 %): 10.5%
